{"source": "PubChem BioAssay AID588591", "about": "(National Center for Advancing Translational Sciences (NCATS), 2011)", "note": "Values joined by “and” are separate entries in the source; they are usually repeats but may differ in a detail not shown here. Equal values may be shown once. Among all 390,000 compounds or so, about 4,700 (1.2%) were called active. This list was built around the results that the source calls inconclusive (neither active nor inactive); the mix of calls is not that of the screen. Calls follow the shape of the dose curve; as a rule, active = well fitted inhibition curve with a large enough effect; inconclusive = small, poorly fitted or top-dose-only effect, or another doubt; inactive = no such curve, though single readings can be large or run the other way. A potency beside an inconclusive call is a rough fit, not a confirmed value. % is scaled to controls: 0 for no effect and ±100 for the full control effect; potency is read from the fitted curve at half-maximal effect; tags tell the direction and shape of the fitted curve.", "data": [{"molecular_target": "DNA polymerase eta (Homo sapiens) (UniProt Q9Y253)", "sequence (Q9Y253 whole entry, looked up)": "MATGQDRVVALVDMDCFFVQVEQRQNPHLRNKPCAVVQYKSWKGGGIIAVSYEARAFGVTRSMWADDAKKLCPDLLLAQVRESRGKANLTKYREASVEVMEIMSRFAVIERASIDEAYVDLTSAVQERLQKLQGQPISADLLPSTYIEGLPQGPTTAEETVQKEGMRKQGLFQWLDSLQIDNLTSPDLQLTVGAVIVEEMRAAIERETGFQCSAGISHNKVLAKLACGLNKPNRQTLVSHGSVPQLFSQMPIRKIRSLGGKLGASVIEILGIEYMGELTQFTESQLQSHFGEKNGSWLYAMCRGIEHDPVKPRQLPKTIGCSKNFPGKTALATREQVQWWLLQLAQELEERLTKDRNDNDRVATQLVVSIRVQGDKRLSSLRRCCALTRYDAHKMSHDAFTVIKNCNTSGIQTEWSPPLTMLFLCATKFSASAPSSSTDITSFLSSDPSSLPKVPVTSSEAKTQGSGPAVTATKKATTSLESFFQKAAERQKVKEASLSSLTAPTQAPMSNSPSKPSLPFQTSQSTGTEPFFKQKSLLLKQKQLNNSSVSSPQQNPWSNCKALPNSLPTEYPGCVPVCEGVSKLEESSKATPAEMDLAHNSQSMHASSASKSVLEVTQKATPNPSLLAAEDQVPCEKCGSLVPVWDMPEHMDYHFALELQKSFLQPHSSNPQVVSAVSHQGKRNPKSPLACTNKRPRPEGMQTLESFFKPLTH", "assay": "qHTS for Inhibitors of Polymerase Eta", "settings": "recombinant Pol eta, fluorescent DNA replication assay; series mostly up to 114 µM; activity change, negative = inhibition: at the top concentration", "method_in_brief": "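Fluorescent replication assay: 50 nM final substrate added after a 15 min room-temperature compound preincubation with 10 nM enzyme. Signal taken at 0 min and again at 10 min.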", "values": [{"compound": "COc1cc(/C=C/C(=O)Nc2ccc(S(=O)(=O)Nc3ncccn3)cc2)ccc1OCC#N", "Potency": "inconclusive: 56.2 µM [inhibitor, partial curve, poor fit]"}, {"compound": "CCOC(=O)c1c(SCCN2CCCC2)n(-c2ccccc2)c(=S)n(-c2ccccc2)c1=O", "activity change, negative = inhibition": "inactive: -17.2%"}, {"compound": "NS(=O)(=O)c1ccc(NC(=S)NC(=O)/C=C/c2ccco2)cc1", "Potency": "active: 31.6 µM"}, {"compound": "CCN(C(=O)COC(=O)c1ccc([N+](=O)[O-])o1)C1CCCCC1", "Potency": "active: 89.1 µM"}, {"compound": "CCOC(=O)c1c(-c2ccccc2)oc2ccc(N(C(C)=O)S(=O)(=O)c3cc(C)ccc3C)cc12", "activity change, negative = inhibition": "inactive: -5.02%"}, {"compound": "Cn1c(=O)c2c(n(Cc3ccccc3)c1=O)NC(=O)C2CC(=O)O", "note": "(centres undefined)", "Potency": "inconclusive: 35.5 µM [inhibitor, single point]"}, {"compound": "S=c1nc[nH]c2c1sc1nc(-c3ccccc3)c3c(c12)CCCC3", "Potency": "inconclusive: 15.8 µM [inhibitor, full curve, poor fit]"}, {"compound": "COc1ccc(OC)c(/C=N/NC(=O)c2cc(-c3ccc(C)o3)nc3ccccc23)c1", "Potency": "inconclusive: 11.2 µM [inhibitor, full curve, poor fit]"}, {"compound": "Cc1cc(C)cc(C(=O)Nc2ccc(-c3nc4ncccc4o3)cc2)c1", "Potency": "inconclusive: 89.1 µM [inhibitor, single point]"}, {"compound": "CC1=CC(C)(C)N(C(=O)CSc2nnc(N)s2)c2c(C)cc(C)cc21", "Potency": "inconclusive: 89.1 µM [inhibitor, partial curve, poor fit]"}, {"compound": "CCOc1ccc(N2CC(c3nc4ccccc4n3Cc3cccc(Cl)c3)CC2=O)cc1", "note": "(centres undefined)", "activity change, negative = inhibition": "inactive: -13.2%"}, {"compound": "CCN(CC)CCNc1ccc(C)c2sc3ccc(O)cc3c(=O)c12", "Potency": "inconclusive: 20 µM [inhibitor, full curve, poor fit]"}, {"compound": "Oc1ccc(NCc2cccc(OCc3ccccc3)c2)cc1", "activity change, negative = inhibition": "inactive: -18.2%"}, {"compound": "CCOC(=O)c1c(C)[nH]c(C(=O)N/N=C\\c2ccccc2Cl)c1C", "Potency": "inconclusive: 28.2 µM [inhibitor, partial curve, poor fit]"}, {"compound": "Cc1cc(NS(=O)(=O)c2ccc(NC(=O)c3c(F)c(F)c(F)c(F)c3F)cc2)nc(C)n1", "activity change, negative = inhibition": "inactive: -5.19%"}, {"compound": "Cc1ccc2c(C(=O)CSc3ccccc3)c(C)[nH]c2c1", "Potency": "inconclusive: 39.8 µM [inhibitor, partial curve, poor fit]"}, {"compound": "CCCCOc1[nH]c2nc(-c3ccco3)n(Cc3ccco3)c(=N)c2c1C#N", "Potency": "inconclusive: 12.6 µM [inhibitor, full curve, poor fit]"}, {"compound": "N=C1/C(=C/c2ccc(OCc3ccccc3)cc2)C(=O)N=C2SC(CC(=O)N3CCOCC3)=NN12", "Potency": "inconclusive: 56.2 µM [inhibitor, partial curve, poor fit]"}, {"compound": "O=C(N=Nc1c(O)[nH]c2ccc(F)cc12)c1ccc(NS(=O)(=O)c2cccs2)cc1", "Potency": "inconclusive: 25.1 µM [inhibitor, partial curve, poor fit]"}, {"compound": "O=C(COc1ccc([N+](=O)[O-])cc1)Nc1cccnc1", "Potency": "inconclusive: 89.1 µM [inhibitor, single point]"}, {"compound": "c1ccc2c(c1)c1c(c3ccccc32)CN2CCCC2C1", "note": "(centres undefined)", "Potency": "inconclusive: 28.2 µM [inhibitor, single point]"}, {"compound": "COc1ccc(C2=CC(=O)N(Nc3ccccc3)C2=O)cc1", "activity change, negative = inhibition": "inactive: -6.59%"}, {"compound": "CCN(CC)CCCC(C)Nc1c2ccc(Cl)cc2nc2ccc(OC)cc12", "note": "(centres undefined)", "Potency": "inconclusive: 31.6 µM [inhibitor, single point]"}, {"compound": "Cc1nc2c(-c3ccc(F)cc3)cnn2c(N)c1-c1ccccc1", "Potency": "inconclusive: 44.7 µM [inhibitor, partial curve, poor fit]"}, {"compound": "Cc1c(C(=O)O)oc2ccc(S(=O)(=O)NCc3ccc4c(c3)OCO4)cc12", "Potency": "inconclusive: 35.5 µM [inhibitor, partial curve, poor fit]"}, {"compound": "Cc1ccc(SCC(=O)NCCc2ccc(F)cc2)cc1", "activity change, negative = inhibition": "inactive: -18%"}, {"compound": "COc1ccc2oc(C(=O)Nc3nccs3)c(C)c2c1", "activity change, negative = inhibition": "inactive: -20.7%"}, {"compound": "CN1C(=O)COc2ccc(C(=O)c3ccccc3C(=O)O)cc21", "Potency": "inconclusive: 89.1 µM [inhibitor, partial curve, poor fit]"}, {"compound": "CC(C)C[C@H](NC(=O)C1CC(=O)N(c2ccc3c(c2)OCO3)C1)C(=O)NC1CCCC1", "note": "(some centres undefined)", "Potency": "active: 89.1 µM"}, {"compound": "CN(C)S(=O)(=O)N(CC(=O)N(Cc1ccccc1)Cc1ccccc1)c1ccccc1", "Potency": "inconclusive: 100 µM [inhibitor, single point]"}, {"compound": "CCOc1ccc(NC(=O)c2ccc3c(SCC(=O)O)c4c(nc3c2)CCCC4)cc1", "Potency": "inconclusive: 89.1 µM [inhibitor, single point] and inconclusive: 63.1 µM [inhibitor, partial curve, poor fit]"}, {"compound": "CCc1ccc(N=C2NC(=O)CC(C(=O)Nc3ccc(OC)cc3)S2)cc1", "note": "(centres undefined)", "Potency": "inconclusive: 89.1 µM [inhibitor, single point]"}, {"compound": "CC(=O)c1ccc(NS(=O)(=O)c2ccc3ccccc3c2)cc1", "activity change, negative = inhibition": "inactive: -15.8%"}, {"compound": "Cc1ccc(CCNC(=O)c2ccc3c(c2)N(Cc2cccc(C)c2)C(=O)c2ccccc2S3(=O)=O)cc1", "Potency": "inconclusive: 89.1 µM [inhibitor, single point]"}, {"compound": "CC(C)C#Cc1ccc2c(c1)O[C@@H](CN(C)S(=O)(=O)c1cn(C)cn1)[C@@H](C)CN([C@H](C)CO)S2(=O)=O", "Potency": "inconclusive: 79.4 µM [inhibitor, partial curve, poor fit]"}, {"compound": "CCCn1c2ccccc2c2nnc(SCC(=O)Nc3nnc(CC(=O)OCC)s3)nc21", "Potency": "inconclusive: 39.8 µM [inhibitor, single point]"}, {"compound": "O=C(COC(=O)c1ccc(S(=O)(=O)NCc2ccco2)cc1)NC1CCCCCC1", "Potency": "inconclusive: 89.1 µM [inhibitor, partial curve]"}, {"compound": "Cc1ccc(-c2cc(C(=O)NCc3cnn(C)c3C)c3cc(Br)ccc3n2)cc1", "Potency": "inconclusive: 631 nM [inhibitor, full curve, poor fit] and inconclusive: 79.4 µM [inhibitor, partial curve, poor fit]"}, {"compound": "CC(=O)c1ccc(S(=O)(=O)Nc2cccc(-c3ccc(N4CCOCC4)nn3)c2)cc1", "Potency": "inconclusive: 31.6 µM [inhibitor, partial curve, poor fit]"}, {"compound": "Cc1ccc(-c2cc(C(=O)Nc3ccc(S(=O)(=O)Nc4ncccn4)cc3)[nH]n2)c(O)c1C", "Potency": "active: 44.7 µM"}, {"compound": "N#CCc1ccc(NC(=O)/C=C/c2ccc([N+](=O)[O-])o2)cc1", "Potency": "active: 20 µM"}, {"compound": "COc1ccc(Cl)cc1Nc1sc(C(=O)c2ccccc2)c(N)c1C(=O)Nc1ccccc1", "activity change, negative = inhibition": "inactive: -20.3%"}, {"compound": "CCOC(=O)c1cnn(-c2ccccc2)c1-n1cccc1C(=O)C(=O)Nc1ccccc1C(F)(F)F", "Potency": "inconclusive: 79.4 µM [inhibitor, partial curve, poor fit]"}, {"compound": "CCCN(CCC)C(=O)Cn1c(=O)n(Cc2ccc(C(=O)NCCc3ccc(OC)c(OC)c3)cc2)c(=O)c2ccccc21", "Potency": "inconclusive: 112 µM [inhibitor, partial curve, poor fit]"}, {"compound": "Cc1ccc(-n2c(CCC(=O)O)ccc2-c2cccs2)cc1", "Potency": "inconclusive: 89.1 µM [inhibitor, single point]"}, {"compound": "O=C(O)CCCCCn1c(SCC(=O)c2ccc(O)c(O)c2)nc2ccsc2c1=O", "Potency": "active: 2.82 µM"}, {"compound": "O=C(NC1=C(Nc2ccc(Cl)cc2)C(=O)c2ccccc2C1=O)c1ccccc1", "activity change, negative = inhibition": "inactive: -21%"}, {"compound": "NC(=O)CSc1nc2c(c(=O)n1-c1ccccc1)C1(CCCCC1)Cc1ccccc1-2", "Potency": "inconclusive: 39.8 µM [inhibitor, partial curve, poor fit]"}, {"compound": "O=C(COC(=O)c1cn(-c2ccccc2)nc1-c1ccccc1)Nc1ncc(Cl)cc1Cl", "Potency": "active: 35.5 µM"}, {"compound": "CCN(C(=O)Cc1c(C(=O)O)n(CC)c2ccccc12)c1cccc(C(F)(F)F)c1", "activity change, negative = inhibition": "inactive: -11.4%"}, {"compound": "O=C(COC(=O)c1ccc(F)c(S(=O)(=O)N2CCOCC2)c1)Nc1ccc(Cl)cn1", "activity change, negative = inhibition": "inactive: -3.11%"}, {"compound": "CC1=C(C)C(=O)C(CCCCC#CCCCC#CCO)=C(C)C1=O", "Potency": "inconclusive: 0.316 µM [inhibitor, partial curve]"}, {"compound": "Cc1cc(C(=O)NCC2CCCCC2)ccc1[N+](=O)[O-]", "Potency": "inconclusive: 100 µM [inhibitor, partial curve, poor fit]"}, {"compound": "Cc1cc([N+](=O)[O-])cc(C)c1OCC(=O)N/N=C/c1ccc(OC(=O)c2ccccc2)cc1", "Potency": "inconclusive: 25.1 µM [inhibitor, partial curve, poor fit]"}, {"compound": "Cn1c(N)c(C(=O)COC(=O)c2ccc([N+](=O)[O-])o2)c(=O)n(C)c1=O", "Potency": "active: 89.1 µM"}, {"compound": "Cc1ccc(CC2CC(=O)N(Cc3ccco3)C2=O)cc1", "note": "(centres undefined)", "Potency": "inconclusive: 31.6 µM [inhibitor, partial curve, poor fit]"}, {"compound": "Cc1ccc(-c2cc3ncc(C(=O)c4cc([N+](=O)[O-])ccc4O)cn3n2)cc1", "activity change, negative = inhibition": "inactive: -6.82%"}, {"compound": "CC1(C2CC(=O)c3c(O)ccc(O)c3C2)OCCO1", "note": "(centres undefined)", "activity change, negative = inhibition": "inactive: 0.712%"}, {"compound": "O=C(O)c1ccc(COc2c(F)c(F)cc(F)c2F)o1", "Potency": "active: 44.7 µM"}, {"compound": "Cc1ccn2c(c1)nc(=O)c1cc(S(=O)(=O)N3CCC(C)CC3)c(Cl)cc12", "activity change, negative = inhibition": "inactive: -11.2%"}, {"compound": "COc1ccc2c(COC(=O)[C@@H]3CCCN3S(=O)(=O)c3ccc(Cl)cc3)cc(=O)oc2c1", "Potency": "inconclusive: 22.4 µM [inhibitor, full curve]"}, {"compound": "CC1=C/C(=C\\c2ccc(Br)o2)C(=O)O1", "Potency": "active: 2.24 µM"}, {"compound": "O=C1CC(=O)NC(SCC(=O)Nc2ccccc2[N+](=O)[O-])=N1", "Potency": "active: 5.62 µM"}, {"compound": "Cc1c(CCC(=O)O)c(=O)oc2cc3occ(-c4ccc(Br)cc4)c3cc12", "Potency": "inconclusive: 17.8 µM [inhibitor, full curve, poor fit]"}]}]}
